In PubChem BioAssay AID1508624 (National Center for Advancing Translational Sciences (NCATS), 2021):
Hit rate of the full screen: of about 48,000 compounds, about 120 (0.25%) were called active. Roughly 4% stayed inconclusive and do not appear here. Calls come from the whole dose curve; as a rule, active = well fitted activation curve with a large enough effect; inconclusive = small, poorly fitted or top-dose-only effect, or another doubt; inactive = no such curve, though single readings can be large or run the other way. This is one part of the list.

Assay: Primary qHTS for Identification of Small Molecule Activators of Huntingtin-Antisense Promoter Activity; note: nearly all actives have a fitted effect of over 55% in size
Settings: HEK293 HTT-AS promoter firefly luciferase reporter (activity 0% = vehicle and -100% = no light), 24 h; series mostly up to 57.5 µM; activity change, positive = activation: at the top concentration
Method in brief: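 HEK293 Fluc reporter, 2,500 cells/well, 24 h pre-culture; cpds up to 57.5 uM final, 24 h 37 degrees C; Dual-Glo, 10 min RT; normalized vehicle = 0%, zero RLU = -100%.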
Potency is the fitted concentration of half-maximal effect.

Structure (SMILES) | activity change, positive = activation | Potency
CCc1ccc(-n2nc(C)c3c(C(=O)Nc4cc(C)ccc4C)cc(C)nc32)cc1 | inactive: -15.3% | 
CCOc1ccccc1CNC(=O)C1CCCN(S(=O)(=O)c2ccc3c(ccn3C)c2)C1 (configuration not stated) | inactive: -30.1% | 
CC1CCN(S(=O)(=O)c2nnc(NC(=O)c3cccc(F)c3)s2)CC1 | inactive: -29.2% | 
COC(=O)c1sc2cccc(F)c2c1S(=O)(=O)N1CCN(c2ccc(C)cc2C)CC1 | inactive: -26.6% | 
COc1nc(-c2ccc(C)cc2)ccc1-c1noc(-c2ccc(C(C)(C)C)cc2)n1 | inactive: -5.26% | 
Cc1cccc(N2CCN(C(=O)c3ccc4c(c3)c(C)c(C)n4C)CC2C)c1 (configuration not stated) | inactive: -26.8% | 
Cc1ccc(NC(=O)c2cc(S(=O)(=O)N3CCCC3)c[nH]2)c(C)c1 | inactive: -14.7% | 
COc1ccc(OC)c(S(=O)(=O)NCCc2csc3nc(-c4ccccc4)nn23)c1 | inactive: -9.42% | 
COc1ccccc1N1CCN(c2cc(C)nc3nc(-c4ccc(Cl)cc4)nn23)CC1 | inactive: -15.7% | 
CCN(CC)CCCNC(=O)c1nn(-c2ccc(C)cc2)c(=O)c2c1c1ccccc1n2C | inactive: -0.604% | 
CCN(Cc1ccccc1)C(=O)c1sc2nc3n(c(=O)c2c1C)CCCC3 | inactive: -19.5% | 
CCOc1ccc(CNS(=O)(=O)c2ccc(-c3coc(C)n3)cc2)cc1OC | inactive: -37.3% | 
CCCCN(C)CCCNC(=O)Cn1ncc2c3ccccc3n(Cc3cc(C)ccc3C)c2c1=O | inactive: -30.4% | 
CCC(=O)N1c2ccc(S(=O)(=O)CCC(=O)Nc3ccc(Br)c(C)c3)cc2CC1C (configuration not stated) | inactive: -29.7% | 
CCOCCCN(Cc1ccco1)C(=O)c1cc2c(=O)[nH]c3ccc(C)cc3c2s1 | inactive: -49% | 
COCCNC(=O)Cn1c(=O)n(CCCCCC(=O)Nc2ccccc2)c(=O)c2sccc21 | inactive: 14.6% | 
O=S(=O)(c1ccccc1)c1nnn2c1nc(NCc1ccccc1)c1sccc12 | inactive: -7.15% | 
COc1ccc(/C=C(\C#N)c2nc3ccccc3n2C)c(OC)c1 |  | active: 3.55 µM
Cc1ccc(Cl)cc1N1CCN(C(=O)CN2C(=O)CSc3c2c(C)nn3-c2ccccc2)CC1 | inactive: 3.08% | 
COc1cccc(NC(=O)c2cnc(SCC(=O)N3CCOCC3)n(C)c2=O)c1 | inactive: -25.3% | 
O=C(NCc1cccs1)c1ccc(Cn2c(SCc3ccc(F)cc3)nc3cccnc32)cc1 | inactive: -6.84% | 
COc1ccc(-c2cn3c(n2)sc2cc(C(=O)NCCc4ccc(OC)cc4OC)ccc23)cc1 | inactive: -30.4% | 
Cc1cccc2sc(N(CCCN(C)C)C(=O)COc3ccccc3)nc12 | inactive: -11% | 
COC(=O)c1ccccc1NC(=O)Cn1c(=O)n(-c2cccc(C(F)(F)F)c2)c(=O)c2c(C)c(C)sc21 | inactive: 10.4% | 

Structure (SMILES) | activity change, positive = activation | Potency
CCOc1ccc(N(CC)S(=O)(=O)N2CCCC(C(=O)NCCc3ccc(OC)cc3)C2)cc1 (configuration not stated) | inactive: -31% | 
CCN(CC)S(=O)(=O)c1ccc2oc(C(=O)NCc3ccccc3OC)c(C)c2c1 | inactive: -20.5% | 
Cc1ccc(S(=O)(=O)NCC2CCC(C(=O)NCCc3ccc(Cl)cc3)CC2)cc1 (configuration not stated) | inactive: -2.54% | 
Cc1ccc(C)c(N2CCN(C(=O)c3cc(S(=O)(=O)N4CCCCCC4)cn3C)CC2)c1 | inactive: -42.6% | 
COCCCNC(=O)c1ccc(Cn2c(SCc3cccc(C)c3)nc3cccnc32)cc1 | inactive: 13.3% | 
CCOC(=O)C1CCCN(C(=O)c2nn(-c3ccc(C)cc3)c(=O)c3c2c2ccccc2n3C)C1 (configuration not stated) | inactive: 7.11% | 
CCCn1c(CCCNC(=O)c2ccccc2OC)nc2ccccc21 | inactive: -13% | 
O=C(/C=C\c1ccccc1)NC1CC(=O)N(c2ccccc2)C1 (configuration not stated) | inactive: -6.21% | 
Cc1cc(C)c2c(n1)sc1c(=O)n(-c3cc(Cl)ccc3C)nnc12 | inactive: -43.1% | 
CC(=O)CCCCn1c(=O)c2c(ncn2C)n(C)c1=O | inactive: -3.03% | 
CCC1CCCCN1C(=O)Cn1c(=O)cc(C(F)(F)F)c2c(C)nn(C)c21 (configuration not stated) | inactive: -31.4% | 
O=C1c2[nH]nc(-c3ccccc3O)c2C(c2ccc(F)cc2)N1CCO (configuration not stated) | inactive: -14.3% | 
COc1ccc(OC)c(NC(=O)Cc2c(C(=O)O)n(C)c3ccc(C)cc23)c1 | inactive: -9.17% | 
CCOC(=O)c1c(C)sc(-c2c(-c3ccc(OC)c(F)c3)[nH]c3[nH]c(=O)[nH]c(=O)c23)c1O | inactive: -15.4% | 
COC(=O)c1cnn(-c2ccc(C(=O)Nc3cc(OC)c(OC)c(OC)c3)cc2)c1N | inactive: 0.157% | 
COc1ccc(-c2nc(SCC(=O)N3CCCCC3C)n[nH]2)cc1 (configuration not stated) | inactive: -16.1% | 
CCOC(=O)c1cc(-c2ccc(OC)cc2)n(CCC(=O)Nc2nc3ccc(OCC)cc3s2)c1C | inactive: -20% | 
CCc1cccc(C)c1Nc1c(-c2cccc(O)c2)nc2nc(C)cc(C)n12 | inactive: -29.5% | 
CCc1ccccc1NC(=O)CSc1ncc(S(=O)(=O)c2ccc(C(C)C)cc2)c(N)n1 | inactive: -43.3% | 
Cc1ccc(CN(Cc2ccco2)C(=O)c2ccc(Cl)cc2)o1 | inactive: -32.5% | 
CCc1ccc(-n2c(=O)c3c(C)c(C(=O)N(C)C)sc3n(Cc3ccccc3C#N)c2=O)cc1 | inactive: -1.88% | 
CN(C/C=C/c1ccccc1)Cc1cccc2ccccc12 | inactive: -25.6% | 
COc1cc(Cl)c(C)cc1NC(=O)Cn1ncc2c3ccccc3n(Cc3ccccc3)c2c1=O | inactive: -10.9% | 
